Experimental data: ChEMBL document CHEMBL4888484, “Replenishing the malaria drug discovery pipeline: Screening and hit evaluation of the MMV Hit Generation Library 1 (HGL1) against asexual blood stage Plasmodium falciparum ,using a nano luciferase reporter read-out” (2022)
The whole screen tested about 150,000 compounds, of which about 540 (0.36%) showed an effect of 50% or more. This is one part of the list.

system: Plasmodium falciparum; experiment: Primary screen in NF54 nanoGlo assay, in single point, at 2uM, 72h; a lower Z score goes with more inhibition; type: functional, Erythrocyte; details: timepoint 72 hour

Structure (SMILES) | % Inhibition [%] | Z score
CC(C)(C)NC(=O)C1CCN(C[C@@H]2CC=CCC2)CC1 | 36 | -0.92
O=C(N[C@H]1CCN(c2ccc(Cl)cc2Cl)C1)c1cnns1 | 5 | -0.96
O=C(C1CCCC1)N1CCN(c2nc3cc(Cl)ccc3c3nnc(Cc4ccccc4)n23)CC1 | 7 | -1.19
Cc1nn(-c2ccc(Br)cc2)cc1-c1noc(C(=O)NC2CCCCCCC2)n1 | -18 | 2.34
c1cc(N2CCOCC2)ccc1CN1CCCC2CCCC21 (centres undefined) | -8 | 0.92
O=C1NCCCCCCN(Cc2ccc(F)c(F)c2)[C@H]2CCC[C@@H]12 | -8 | 1.09
COc1ccc(COCC(=O)NCC(C)(C)N2CCN(C)CC2)cc1 | -5 | 1.09
O=S(=O)(c1cn[nH]c1)N1CCC([C@@H](O)CCc2ccccc2)CC1 | -10 | 1.22
Cc1ccc(S(=O)(=O)N2CCN(S(=O)(=O)c3ccc(C)cc3)[C@@H](C)C2)cc1 | -17 | 2.16
O=C(NCCN1CCCCC1)C(=O)Nc1cccc2nsnc12 | 6 | -0.68
Cc1ccc2nc(C(=O)N3CCC4(CC3)c3nc[nH]c3CCN4C)c(F)n2c1 | -8 | 1.15
CC(C)CN(C1CCOCC1)C1CN(C(=O)c2ccc3[nH]ccc3c2)C1 | 1 | -0.22
C[C@H](NC(=O)CN1CN(c2ccccc2)C2(CCN(C(=O)c3ccc(Cl)cc3)CC2)C1=O)c1ccccc1 | 11 | -1.18
CC1(C)C(=O)N(Cc2ccccc2)CCN1C(=O)C[C@H](O)c1cccc(F)c1 | 0 | -0.05
CN(CC(=O)Nc1cccc(F)c1)CC(=O)Nc1cc(C(F)(F)F)ccc1N1CCOCC1 | -3 | 0.66
CCc1nn2c(c1-c1ccc(C)c(S(=O)(=O)Nc3cccc(C)c3C)c1)NC(=O)CCC2=O | -8 | 0.96
CC[C@@H](C(=O)N1CCCc2ccccc21)n1cnc2onc(C)c2c1=O | -7 | 1.01
Cc1nc(C2CC2)oc1C(=O)N(Cc1ccccc1)[C@@H](C)C(=O)O | -2 | 0.4
COCCN(Cc1cn(C)c2ccccc12)CC1CCN(Cc2ccccc2OC)CC1 | -11 | 1.27
Cn1cncc1C(=O)N1CCC(Oc2cccc(F)c2)CC1 | 8 | -1.22
CCC(C)(C)N1CCN(c2ccnc(N(C)C)n2)CC1 | 15 | -1.96
COc1cc(C)ccc1Oc1nc(C)nc(NCc2ccccc2)c1N | -1 | 0.17
CC(=O)c1ccc(N2CCN(C(=O)CCN3CCC[C@H](C)C3)CC2)cc1 | -1 | 0.22
CC(C)Cc1cc(-c2cn(CC3(CO)CCOCC3)nn2)n[nH]1 | -9 | 1.8
CC1=NN(c2ccccc2)C(=O)C12Cc1ccc(Cl)cc1N1CCN(Cc3ccccc3)CC12 (centres undefined) | -7 | 1.28
Cc1ccc(C(=O)NCc2csc(C)n2)c(=O)[nH]1 | -3 | 0.31

Structure (SMILES) | % Inhibition [%] | Z score
Cc1nc(NS(=O)(=O)c2ccccc2)sc1C(=O)NCc1ccccc1 | 4 | -0.5
Fc1ccccc1-c1noc(-c2cncnc2N2CCCCC2)n1 | 0 | 0.05
CCN(CC)Cc1cnc2c(C(=O)N(CC)[C@H]3CCOC(C)(C)C3)cnn2c1 | -16 | 1.48
N#Cc1ccc(C(=O)NC2CCC3CCCCC3C2)cc1 (centres undefined) | -20 | 2.85
O=C(c1ccsc1)N1CCCc2cnc(N3CCOCC3)nc21 | -8 | 1.42
O=C(N1CC(c2nc(-c3cnccn3)no2)C1)C1(c2ccccc2)CCOCC1 | -7 | 1.36
Cc1ccc(N2C[C@@H](C(=O)Nc3c4c(nn3C(C)(C)C)CS(=O)(=O)C4)CC2=O)cc1 | -5 | 0.97
Cc1nc2ncnn2c2ccn(-c3ccn[nH]3)c(=O)c12 | -4 | 0.81
COc1cc(C(=O)NC[C@](C)(O)c2ccc(-c3ccccc3)cc2)cc(OC)c1OC | -7 | 1.26
Cc1ccc(C(=O)N2CCOC3CCCC32)c(=O)[nH]1 (centres undefined) | -10 | 1.3
O=C(NCc1ccncc1)[C@]1(F)CCCN(Cc2ccoc2)C1 | -11 | 0.96
Cc1csc([C@H](C)NC(=O)c2n[nH]c3c2CN(C)CC3)n1 | 0 | -0.01
Cc1csc(NC(=O)C[C@@H]2C=CCC2)n1 | -25 | 3.6
CCc1nnc(CNC(=O)Nc2ccc3c(c2)O[C@@H](C)C(=O)N3C)o1 | -5 | 0.51
CCc1cnc(CN(C)C(=O)[C@H]2CCc3nncn3C2)s1 | 18 | -2.26
COc1cc(Br)ccc1C(=O)N(C)c1cccnc1 | -13 | 1.63
CC(C)[C@@H](O)CN1CCN(c2ccsc2C#N)CC1 | -7 | 0.74
O=C(c1cnc(C2CC2)nc1)N1CCN(C(=O)c2c(F)cccc2F)CC1 | -1 | 0.1
COc1cccc(CN2C(=O)N[C@@](C)(C3CCN(Cc4cc(C)cc(C)c4)CC3)C2=O)c1OC | -13 | 1.82
Cc1cnc(C)c(N2CCC([C@H](O)C(F)(F)F)CC2)n1 | -10 | 1.52
N#Cc1cccc(C(=O)Nc2ccc3c(c2)OC2(CCCCC2)O3)c1 | -11 | 1.17
O=C(NC1CN(Cc2ccccc2)CCC1CO)C1=COCCO1 (centres undefined) | 1 | -0.19
CC(C)(C(=O)N1CCC2(CC1)NC(=O)NC2=O)c1ccccc1 | -8 | 1.25
O=S1(=O)CCN(C2CCN(S(=O)(=O)c3ccccc3OC(F)(F)F)CC2)CC1 | -6 | 0.64
COC(=O)c1ccc(NC(=O)c2ccc(-n3ccnc3C)nn2)cc1 | -4 | 0.78
Cc1cc(C(=O)NC(C)C2CCCO2)c(C)n1-c1ccc2c(c1)OCCO2 (centres undefined) | -3 | 0.29
